The labels stand for the following.
B1: PhoQ; a variant is named by its letters at X, in order, P23837 (parent)
chain: MKKLLRLFFPLSLRVRFLLATAAVVLVLSLAYGMVALIGYSVSFDKTTFRLLRGESNLFYTLAKWENNKLHVELPENIDKQSPTMTLIYDENGQLLWAQRDVPWLMKMIQPDWLKSNGFHEIEADVNDTSLLLSGDHSIQQQLQEVREDDDDAEMTHSVAVNVYPATSRMPKLTIVVVDTIPVELKSSYMVWSWFIYVLSANLLLVIPLLWVAAWWSLRPIEALAKEVRELEEHNRELLNPATTRELTSLVRNLNRLLKSERERYDKYRTTLTDLTHSLKTPLXXLQXXLRSLRSEKMSVSDAEPVMLEQISRISQQIGYYLHRASMRGGTLLSRELHPVAPLLDNLTSALNKVYQRKGVNISLDISPEISFVGEQNDFVEVMGNVLDNACKYCLEFVEISARQTDEHLYIVVEDDGPGIPLSKREVIFDRGQRVDTLRPGQGVGLAVAREITEQYEGKIVAGESMLGGARMEVIFGRQHSAPKDE

This is one part of the list.

In the experiment the parent is B1. Kind of experiment: enrichment ratio after two sorts for PhoP signalling (ratio (wild type AVST 3.29)); higher = more functional. To be noted: with PhoP (E. coli).
As to TQTE, the enrichment ratio was 26.4.

Regarding YHHG, the enrichment ratio is not above 0.25.

Turning to ICIY, the enrichment ratio is not above 0.25.

On to NDHH, for which the enrichment ratio is not above 0.25.

Regarding EQRH, the enrichment ratio was not above 0.25.

TCNT: the enrichment ratio was found to be 7.62.

Take NNMG: the enrichment ratio is not above 0.25.

Consider EEEI, for which the enrichment ratio was not above 0.25.

As for EFAP, the enrichment ratio was not above 0.25.

Regarding SNIY, the enrichment ratio is not above 0.25.

As to YMEW, the enrichment ratio was not above 0.25.

Consider YTVF, for which the enrichment ratio was 0.29.

YQLW: the enrichment ratio is not above 0.25.

For FYVW, the enrichment ratio is not above 0.25.

As for ISKQ, the enrichment ratio was not above 0.25.

Take DERY: the enrichment ratio was not above 0.25.

AQVD: the enrichment ratio is not above 0.25.

As for SQKW, the enrichment ratio is not above 0.25.

For the variant KDMW, the enrichment ratio was not above 0.25.

Turning to ASEY, the enrichment ratio was not above 0.25.

For the variant AILE, the enrichment ratio was 2.65.

On to RILA, for which the enrichment ratio was not above 0.25.

With RASL, the enrichment ratio was not above 0.25.

Regarding HFNW, the enrichment ratio was determined as 2.78.

For LTAD, the enrichment ratio was not above 0.25.

As for PSRY, the enrichment ratio is not above 0.25.

On to MFVD, for which the enrichment ratio is not above 0.25.

In the case of ANGF, the enrichment ratio worked out at 3.69.

Turning to FLQN, the enrichment ratio is not above 0.25.

Regarding YGVH, the enrichment ratio is not above 0.25.

As for YSAV, the enrichment ratio was not above 0.25.

With RAYG, the enrichment ratio was not above 0.25.

In the case of SRRN, the enrichment ratio is not above 0.25.

GEWM: the enrichment ratio was not above 0.25.

In the case of NTHR, the enrichment ratio was not above 0.25.

For the variant VADT, the enrichment ratio is not above 0.25.

Turning to LNGH, the enrichment ratio was not above 0.25.

Turning to LHDE, the enrichment ratio was not above 0.25.

In the case of IHTG, the enrichment ratio was not above 0.25.

As for AASH, the enrichment ratio came out at 5.17.

Regarding GFTS, the enrichment ratio was not above 0.25.

Take ICTI: the enrichment ratio was not above 0.25.

With GERT, the enrichment ratio was not above 0.25.

Take ERGI: the enrichment ratio was not above 0.25.

With MEHH, the enrichment ratio was found to be 7.43.

For the variant ITMS, the enrichment ratio was not above 0.25.

Regarding WTEF, the enrichment ratio was not above 0.25.

Turning to MYFL, the enrichment ratio was not above 0.25.

For the variant SYGH, the enrichment ratio was not above 0.25.

In the case of SAAF, the enrichment ratio came out at 6.02.

For the variant MVPW, the enrichment ratio was not above 0.25.

Consider NAWF, for which the enrichment ratio was not above 0.25.

In the case of SCVW, the enrichment ratio was 1.97.

For the variant EYNV, the enrichment ratio is not above 0.25.

Take GTDR: the enrichment ratio is not above 0.25.

Take RWLH: the enrichment ratio was not above 0.25.

Consider WNHH, for which the enrichment ratio is not above 0.25.

Regarding SMHY, the enrichment ratio was not above 0.25.

Take IPQF: the enrichment ratio was not above 0.25.

For the variant CFFL, the enrichment ratio is not above 0.25.

Consider IEIP, for which the enrichment ratio was not above 0.25.

Take ELPC: the enrichment ratio is not above 0.25.

Consider KRSC, for which the enrichment ratio was not above 0.25.

As for LYGR, the enrichment ratio was not above 0.25.

As for AHAQ, the enrichment ratio is not above 0.25.

FGNF: the enrichment ratio is not above 0.25.

Take QMCP: the enrichment ratio was not above 0.25.

As for TSEI, the enrichment ratio is 15.3.

For TAPQ, the enrichment ratio was not above 0.25.

As to HTRD, the enrichment ratio is not above 0.25.

Regarding VGRA, the enrichment ratio was not above 0.25.

As for PVAI, the enrichment ratio was not above 0.25.

On to GGRE, for which the enrichment ratio is not above 0.25.

YVVD: the enrichment ratio is not above 0.25.

With LKGT, the enrichment ratio was not above 0.25.

On to GQVN, for which the enrichment ratio came out at 4.06.

As to HNAY, the enrichment ratio was not above 0.25.

As to SYPN, the enrichment ratio stood at 0.366.

Turning to FYGA, the enrichment ratio was not above 0.25.

Turning to PDVT, the enrichment ratio is not above 0.25.

On to VPFF, for which the enrichment ratio is not above 0.25.

On to VMCK, for which the enrichment ratio is not above 0.25.

As to WYVL, the enrichment ratio was not above 0.25.

As for TQFS, the enrichment ratio was 5.41.

Turning to DVEK, the enrichment ratio is not above 0.25.

In the case of SVKP, the enrichment ratio was not above 0.25.

In the case of PFDD, the enrichment ratio was not above 0.25.

As for NELK, the enrichment ratio was not above 0.25.

Regarding MHFQ, the enrichment ratio is not above 0.25.

With HGSG, the enrichment ratio is not above 0.25.

In the case of INRI, the enrichment ratio is not above 0.25.

Consider HRCK, for which the enrichment ratio was not above 0.25.

Consider ELEY, for which the enrichment ratio was not above 0.25.

For NWSV, the enrichment ratio is not above 0.25.

Regarding TRFT, the enrichment ratio was not above 0.25.

Consider NAGS, for which the enrichment ratio is not above 0.25.

Regarding VAWQ, the enrichment ratio turned out to be 4.

As for FRYI, the enrichment ratio is not above 0.25.

Consider ETNF, for which the enrichment ratio is not above 0.25.

As for PLMG, the enrichment ratio is not above 0.25.

For SMME, the enrichment ratio came to 14.6.

As to YEYM, the enrichment ratio was not above 0.25.

On to SVFL, for which the enrichment ratio is not above 0.25.

Take ANVC: the enrichment ratio came to 10.9.

Regarding SAAQ, the enrichment ratio was not above 0.25.

As for SREF, the enrichment ratio was not above 0.25.

In the case of PSGQ, the enrichment ratio was not above 0.25.

EAEV: the enrichment ratio was not above 0.25.

Regarding QSCQ, the enrichment ratio was not above 0.25.

Regarding FHLS, the enrichment ratio was not above 0.25.

As to MMMA, the enrichment ratio is not above 0.25.

On to PCYF, for which the enrichment ratio is not above 0.25.

As for PCKR, the enrichment ratio is not above 0.25.

On to MQDM, for which the enrichment ratio is not above 0.25.

Turning to HTYA, the enrichment ratio was not above 0.25.

With WAVL, the enrichment ratio was not above 0.25.

TCTV: the enrichment ratio stood at 12.6.

Turning to VGPT, the enrichment ratio was not above 0.25.

Consider AQYI, for which the enrichment ratio is not above 0.25.

Consider DTGY, for which the enrichment ratio is not above 0.25.

In the case of FNTG, the enrichment ratio was not above 0.25.

For GEGN, the enrichment ratio is not above 0.25.

As for VTPC, the enrichment ratio is not above 0.25.

With PDGT, the enrichment ratio is not above 0.25.

For the variant ESLY, the enrichment ratio is not above 0.25.

Regarding NWMR, the enrichment ratio was not above 0.25.

For the variant YWDN, the enrichment ratio was not above 0.25.

Regarding YHRQ, the enrichment ratio is not above 0.25.

As to QFLE, the enrichment ratio was not above 0.25.

With FKLL, the enrichment ratio is 4.97.

In the case of EFCD, the enrichment ratio was not above 0.25.

Turning to ATYW, the enrichment ratio is not above 0.25.

For the variant LMVQ, the enrichment ratio is not above 0.25.

On to MQYG, for which the enrichment ratio amounted to 4.8.

As to DEAF, the enrichment ratio is not above 0.25.

Consider PYTG, for which the enrichment ratio is not above 0.25.

In the case of MICH, the enrichment ratio is 2.87.

Turning to ARLV, the enrichment ratio came out at 3.4.

In the case of PQHE, the enrichment ratio was not above 0.25.

Take IMSF: the enrichment ratio was not above 0.25.

Regarding NEQM, the enrichment ratio was not above 0.25.

With SCCG, the enrichment ratio came out at 14.3.

For RIEP, the enrichment ratio was not above 0.25.

As to KSFA, the enrichment ratio was not above 0.25.

For ENVN, the enrichment ratio is not above 0.25.

As for WRSE, the enrichment ratio was not above 0.25.

For VIIC, the enrichment ratio was not above 0.25.

Turning to WPVQ, the enrichment ratio was not above 0.25.

Turning to SNTK, the enrichment ratio is not above 0.25.

Take IQNL: the enrichment ratio is not above 0.25.

Consider DGND, for which the enrichment ratio is not above 0.25.

Consider YESD, for which the enrichment ratio was not above 0.25.

On to DAMK, for which the enrichment ratio is not above 0.25.
